Assay [1] deals with T1, IL-21/IL-15RαSu fusion protein (human).
T1 construct: Second chimeric polypeptide of 7t15-21s; also called IL-21/IL-15Rα sushi domain
The assay can be described thus: co-expression in CHO-K1 cells; complex purified by anti-TF (IgG1) affinity and size exclusion chromatography.

The target in assay [2] is T2, TGFβ receptor II/IL-15RαSu fusion protein (TGFRs) (human).
T2 construct: Second chimeric polypeptide of TGFRt15-TGFRs; also called TGFβR/IL-15RαSu
T2 chain: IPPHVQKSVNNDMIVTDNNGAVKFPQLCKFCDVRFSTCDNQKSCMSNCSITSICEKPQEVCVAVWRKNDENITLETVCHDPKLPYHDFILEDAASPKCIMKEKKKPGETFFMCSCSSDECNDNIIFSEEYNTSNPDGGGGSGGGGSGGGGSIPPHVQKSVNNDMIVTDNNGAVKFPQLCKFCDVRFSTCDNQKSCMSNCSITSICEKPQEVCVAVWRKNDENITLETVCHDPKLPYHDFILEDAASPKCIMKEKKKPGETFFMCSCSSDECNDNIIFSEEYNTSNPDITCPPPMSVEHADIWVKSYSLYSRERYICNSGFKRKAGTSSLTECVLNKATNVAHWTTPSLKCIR
The assay can be described thus: co-expression in CHO-K1 cells.

The target of assay [3] is IL-2Rβ and common γ chain on 32Dβ cells. The assay can be described thus: cell-based or functional assay.
For assay [4], the target named is IL-2Rα, IL-2Rβ and common γ chain on CTLL-2 cells. Nature of the assay: cell-based or functional assay.
Assay [5] concerns the target T3, IL-12/IL-15RαSu fusion protein (human).
T3 construct: Second chimeric polypeptide of 18t15-12s
T3 chain: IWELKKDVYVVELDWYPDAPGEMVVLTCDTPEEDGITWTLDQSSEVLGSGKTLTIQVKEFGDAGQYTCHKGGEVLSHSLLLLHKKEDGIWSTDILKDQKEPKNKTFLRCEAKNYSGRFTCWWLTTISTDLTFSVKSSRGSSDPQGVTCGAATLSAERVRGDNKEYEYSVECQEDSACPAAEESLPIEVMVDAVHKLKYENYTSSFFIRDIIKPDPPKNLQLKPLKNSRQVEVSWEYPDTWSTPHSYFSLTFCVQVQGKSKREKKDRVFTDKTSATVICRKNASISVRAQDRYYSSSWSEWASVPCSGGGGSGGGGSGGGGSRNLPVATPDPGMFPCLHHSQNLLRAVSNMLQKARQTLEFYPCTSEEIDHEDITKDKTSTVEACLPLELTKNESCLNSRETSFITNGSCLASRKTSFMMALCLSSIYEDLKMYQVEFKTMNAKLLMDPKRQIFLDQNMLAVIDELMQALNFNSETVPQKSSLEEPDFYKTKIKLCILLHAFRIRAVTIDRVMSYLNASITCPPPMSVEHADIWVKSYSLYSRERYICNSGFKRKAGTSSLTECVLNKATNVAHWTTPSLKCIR
Nature of the assay: co-expression in CHO-K1 cells; complex purified by anti-TF affinity and size exclusion chromatography.

For assay [6], the target named is T4, IL-18/IL-15RαSu fusion protein (human).
T4 construct: Second chimeric polypeptide of 12t15/18s
The assay can be described thus: co-expression in CHO-K1 cells.

Where “and” joins values, the source holds several entries; their conditions need not be identical. Identical values can stand only once.

B1: IL-7/TF/IL-15 fusion protein (other)
chain: DCDIEGKDGKQYESVLMVSIDQLLDSMKEIGSNCLNNEFNFFKRHICDANKEGMFLFRAARKLRQFLKMNSTGDFDLHLLKVSEGTTILLNCTGQVKGRKPAALGEAQPTKSLEENKSLKEQKKLNDLCFLKRLLQEIKTCWNKILMGTKEHSGTTNTVAAYNLTWKSTNFKTILEWEPKPVNQVYTVQISTKSGDWKSKCFYTTDTECDLTDEIVKDVKQTYLARVFSYPAGNVESTGSAGEPLYENSPEFTPYLETNLGQPTIQSFEQVGTKVNVTVEDERTLVRRNNTFLSLRDVFGKDLIYTLYYWKSSSSGKKTAKTNTNEFLIDVDKGENYCFSVQAVIPSRTVNRKSTDSPVECMGQEKGEFRE[… about 120 residues …]
notes: First chimeric polypeptide of 7t15-21s
Consider B1, for which the binding result in assay [1] is “binds”.

B2: TGFβ receptor II/TF/IL-15 fusion protein (TGFRt15) (other)
chain: IPPHVQKSVNNDMIVTDNNGAVKFPQLCKFCDVRFSTCDNQKSCMSNCSITSICEKPQEVCVAVWRKNDENITLETVCHDPKLPYHDFILEDAASPKCIMKEKKKPGETFFMCSCSSDECNDNIIFSEEYNTSNPDGGGGSGGGGSGGGGSIPPHVQKSVNNDMIVTDNNGAVKFPQLCKFCDVRFSTCDNQKSCMSNCSITSICEKPQEVCVAVWRKNDENITLETVCHDPKLPYHDFILEDAASPKCIMKEKKKPGETFFMCSCSSDECNDNIIFSEEYNTSNPDSGTTNTVAAYNLTWKSTNFKTILEWEPKPVNQVYTVQISTKSGDWKSKCFYTTDTECDLTDEIVKDVKQTYLARVFSYPAGNVESTGSAGEPLYENSPEFTPYLETNLGQPTIQSFEQVGTKVNVTVEDERTLVRRNNTFLSLRDVFGKDLIYTLYYWKSSSSGKKTAKTNTNEFLIDVDKGENYCFSVQAVIPSRTVNRKSTDSPVECMGQEKGEFRE[… about 120 residues …]
notes: First chimeric polypeptide of TGFRt15-TGFRs; also called TGFβR/TF/IL-15
With B2, the binding result in assay [2] is “binds”.

B3: IL-2/TF/IL-2 single-chain chimeric polypeptide (2t2) (other)
chain: [… about 150 residues …]SGTTNTVAAYNLTWKSTNFKTILEWEPKPVNQVYTVQISTKSGDWKSKCFYTTDTECDLTDEIVKDVKQTYLARVFSYPAGNVESTGSAGEPLYENSPEFTPYLETNLGQPTIQSFEQVGTKVNVTVEDERTLVRRNNTFLSLRDVFGKDLIYTLYYWKSSSSGKKTAKTNTNEFLIDVDKGENYCFSVQAVIPSRTVNRKSTDSPVECMGQEKGEFRE[… about 150 residues …]
Turning to B3, the “EC50, 32Dβ cell proliferation (WST1)” value in assay [3] was 0.0706 nM and 0.158 nM. Moreover, the “EC50, CTLL-2 cell proliferation (WST1)” value in assay [4] is 0.0907 nM and 0.123 nM.

B4: IL-18/TF/IL-15 fusion protein (other)
chain: [… about 150 residues …]SGTTNTVAAYNLTWKSTNFKTILEWEPKPVNQVYTVQISTKSGDWKSKCFYTTDTECDLTDEIVKDVKQTYLARVFSYPAGNVESTGSAGEPLYENSPEFTPYLETNLGQPTIQSFEQVGTKVNVTVEDERTLVRRNNTFLSLRDVFGKDLIYTLYYWKSSSSGKKTAKTNTNEFLIDVDKGENYCFSVQAVIPSRTVNRKSTDSPVECMGQEKGEFRE[… about 120 residues …]
notes: First chimeric polypeptide of 18t15-12s
Consider B4, for which the binding result in assay [5] is recorded as “binds”.

B5: IL-12/TF/IL-15 fusion protein (other)
chain: IWELKKDVYVVELDWYPDAPGEMVVLTCDTPEEDGITWTLDQSSEVLGSGKTLTIQVKEFGDAGQYTCHKGGEVLSHSLLLLHKKEDGIWSTDILKDQKEPKNKTFLRCEAKNYSGRFTCWWLTTISTDLTFSVKSSRGSSDPQGVTCGAATLSAERVRGDNKEYEYSVECQEDSACPAAEESLPIEVMVDAVHKLKYENYTSSFFIRDIIKPDPPKNLQLKPLKNSRQVEVSWEYPDTWSTPHSYFSLTFCVQVQGKSKREKKDRVFTDKTSATVICRKNASISVRAQDRYYSSSWSEWASVPCSGGGGSGGGGSGGGGSRNLPVATPDPGMFPCLHHSQNLLRAVSNMLQKARQTLEFYPCTSEEIDHEDITKDKTSTVEACLPLELTKNESCLNSRETSFITNGSCLASRKTSFMMALCLSSIYEDLKMYQVEFKTMNAKLLMDPKRQIFLDQNMLAVIDELMQALNFNSETVPQKSSLEEPDFYKTKIKLCILLHAFRIRAVTIDRVMSYLNASSGTTNTVAAYNLTWKSTNFKTILEWEPKPVNQVYTVQISTKSGDWKSKCFYTTDTECDLTDEIVKDVKQTYLARVFSYPAGNVESTGSAGEPLYENSPEFTPYLETNLGQPTIQSFEQVGTKVNVTVEDERTLVRRNNTFLSLRDVFGKDLIYTLYYWKSSSSGKKTAKTNTNEFLIDVDKGENYCFSVQAVIPSRTVNRKSTDSPVECMGQEKGEFRE[… about 120 residues …]
notes: First chimeric polypeptide of 12t15/18s
Regarding B5, the binding result in assay [6] is “binds”.

(Values after US20210338724A1 (IMMUNITYBIO, published 2021).)
